# Source: publication PMC12040169 (PLOS Biology, 2025)
# Some of the results follow.
# System: T1, C. trachomatis L2/434/Bu expressing GFP (CTL2-GFP)
# T1 construct: L2/434/Bu GFP intracellular growth in HeLa cells
# Set-up: species or system HeLa; C. trachomatis total inclusion area by high-content imaging, normalised to DMSO
# Conditions: total inclusion area; 28.5 h, 10 µM; inhibitor
# How it was run: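 High-content images of fixed, Hoechst-stained infected cultures supply inclusion area and count (growth) plus nuclei number (viability), complementing bulk GFP/resorufin fluorescence. MIC determination is unchanged from the primary assay.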
row,SMILES,% of control remaining
1,Cc1sc2nc(SCC(=O)Nc3ccc(S(N)(=O)=O)cc3)n(-c3ccccc3)c(=O)c2c1C [CBK266600],104.549
2,COc1cc(C)c(NC(=O)C(=S)NCc2ccco2)cc1C [CBK268582],108.84
3,FCCOc1cncc(Cl)n1 [CBK113553],103.69
4,CCOc1ccccc1C(=O)N1CCCCC1c1ncc(C(=O)Nc2ccccc2)c(C)n1 (stereo not shown) [CBK285840],73.034
5,CCCCNC(=O)CCCN(CC)CCC1=CC2(CCCC2)c2ccccc21 [CBK013232],78.1059
6,C[C@H](NC(=O)N1CCC2(CC1)NCCc1c2[nH]c2ccc(Cl)cc12)c1ccccc1 [CBK047046],77.6649
7,O=C(NCc1csc(-c2ccccc2)n1)c1ccccc1OC(F)F [CBK092332],117.545
8,Cc1cc(C)[n+]2c(n1)N(c1ccccc1)CC2 [CBK017327G],89.9554
9,O=C(Cn1c(NCCO)nc2ccccc21)C12CC3CC(CC(C3)C1)C2 [CBK262129B],103.44
10,CSCCC(=O)N1CCC2(CCN(C(=O)c3cc(F)c(F)cc3F)C2)C1 (stereo not shown) [CBK131397],103.392
11,O=C(O)c1ccc(OC(=O)C2CCCC2)cc1 [CBK090156],6.548
12,Cc1cccc(NC(=O)CSCc2ccc(Cl)s2)n1 [CBK297895],65.7025
13,COc1ccc(-c2nc(NC(=O)c3ccco3)cnc2-c2cccc(C)c2)cn1 [CBK036954],95.582
14,Cc1cnc(CNC(=O)C2(c3ccccc3)CCCC2)cn1 [CBK149531],126.165
15,Cc1ccc(CCC(=O)N2CCCCC2c2nc3ccccc3[nH]2)o1 (stereo not shown) [CBK282316],65.7311
16,NS(=O)(=O)c1ccc(NC(=O)c2cccnc2)cc1 [CBK264488],112.428
17,COc1ccc([C@]23CN(C)C[C@H]2CCN(C(=O)c2ccc4c(c2)OC(F)(F)O4)C3)cc1OC [CBK075110T],85.5178
18,Cc1nn(C)c(Cl)c1CN1CCOC(c2ccccc2)C1 (stereo not shown) [CBK305244],108.842
19,O=C(O)C1Cc2ccccc2C(=O)N1CCc1ccccc1 (stereo not shown) [CBK286592],120.302
20,Cc1ccc(OCC(=O)Nc2ccc(N3CCN(Cc4ccccc4)CC3)cc2)cc1C [CBK266085],103.709
21,O=C1NCCCNC(=O)C2(C/C=C/CCOc3ccccc31)CCN(C(=O)CN1CCCC1)CC2 [CBK292052],118.294

row,SMILES,% of control remaining
1,CC(=O)Nc1ccc(/C(C)=N/NC(=O)c2ccc(CN3CCOCC3)cc2)cc1 [CBK262720],107.22
2,CCC1=NN(c2ccccc2)C(=O)C(CC(=O)Nc2ccccc2)c2cc(OC)c(OC)cc21 (stereo not shown) [CBK260938],96.852
3,O=c1[nH]nc2c(S(=O)(=O)N3CCCCC3)cccn12 [CBK288450],66.4378
4,c1ccc(Sc2cccc3ccccc23)nc1 [CBK085856],75.338
5,O=C(COC(=O)c1cc(-c2ccco2)nc2ccccc12)Nc1ccc(F)c(F)c1F [CBK296115],57.4291
6,CCOC(=O)CC(=O)Nc1c(Br)cc(Br)cc1C(=O)O [CBK261412],94.0304
7,O=C(CN1CCN(c2cc(-c3ccc4ccccc4c3)ncn2)CC1)N1CCCC1 [CBK091064],139.491
8,COCCNC(=O)c1cc(C2CN(CCc3ccccc3)CCO2)nc2ccccc12 (stereo not shown) [CBK285622],105.81
9,Cc1ccc(S(N)(=O)=O)cc1CNC(=O)Nc1cccc(F)c1 [CBK093516],98.5779
10,Cc1cc(C)n(-c2cc(C)c3ccccc3n2)n1 [CBK262358],102.558
11,NC(CSC12CC3CC(CC(C3)C1)C2)C(=O)O (stereo not shown) [CBK287219],88.2848
12,S=C(NCc1ccc(Cl)c(Cl)c1)Nc1ccncc1 [CBK016649],66.139
13,c1ccc2c(c1)CCCN2Cc1nc2ccccc2[nH]1 [CBK138329],106.845
14,Nc1nc2ccccc2n1CCOc1ccc(Cl)cc1 [CBK087352],96.2159
15,Cc1c(Cl)cccc1NC(=O)C(=O)NCCCN1CCOCC1 [CBK263276],83.588
16,O=C(COc1ccc(S(=O)(=O)N2CCCCC2)cc1)NCc1cccnc1 [CBK268328],89.8632
17,CCOC(=O)CN1CCCN(c2c(F)cc(C#N)cc2F)CC1 [CBK304148],71.3736
18,CCn1c2ccccc2c2cc(NC(=O)CSc3nnc(-c4ccoc4C)o3)ccc21 [CBK269010],77.2518
19,Clc1nsnc1N1CCOCC1 [CBK019133],56.3125
20,CN(C)CCNCCP(=O)(c1ccccc1)c1ccccc1 [CBK263049],98.6319
21,S=C(NCCn1cc(Br)cn1)NCc1ccco1 [CBK266914],116.39

row,SMILES,% of control remaining
1,O=C(c1ccc(F)cc1)[C@H]1CCCN(C(=O)c2cc[nH]n2)C1 [CBK284331],88.1336
2,COC(=O)c1ccsc1NS(=O)(=O)c1ccc(F)cc1 [CBK039060],92.7359
3,CCOc1cccc(-c2ccc(Nc3cccc(NC(=O)c4ccncc4)c3)nc2)c1 [CBK037739],35.9195
4,O=C(Nc1ccc2ccccc2c1)N1CCN(C(=O)C2CCCO2)CC1 (stereo not shown) [CBK044043],81.6556
5,Cc1c(C(=O)O)sc(S(=O)(=O)N2CCN(C(=O)c3ccc(Cl)cc3)CC2)c1C(=O)O [CBK297123],88.3999
6,O=C(Nc1nc(-c2ccco2)c(-c2ccncc2)s1)C1CC1 [CBK284494],110.927
7,Cc1ccc(C(=O)NC[C@H]2O[C@@H](CC(=O)N3CCCC3)[C@H](O)[C@@H]2O)cc1 [CBK288912],75.3462
8,CC(C)(C)OC(=O)N1CCCC(NC(CO)c2ccco2)CC1 (stereo not shown) [CBK304049],99.5115
9,O=C(O)c1oc2ccccc2c1CSc1ccccn1 [CBK286981],107.979
10,COc1ccc(C[C@@H]2NC(=O)[C@H]3CN(C(=O)c4cccn4C)CCN3C2=O)cc1 [CBK289616],86.2558
11,CCN(NC(=O)c1ccccc1-n1cccc1)c1ccc(C)cc1 [CBK161507],106.134
12,O=C(O)C1CCN(C(=O)CSc2nnc(-c3ccccc3F)n2C2CCCC2)CC1 [CBK296971],86.0152
13,COc1ccc(S(=O)(=O)N2CCC(C(=O)NCc3cccnc3)CC2)cc1Cl [CBK267613],106.699
14,CCn1ncc2c1CCCC2NC1CCCN(c2cnn(C)c2)C1=O (stereo not shown) [CBK305316],76.821
15,Cc1ccc(CCC(=O)N(CC(=O)O)C2CCOCC2)c(C)c1 [CBK304509],52.0164
16,Cc1cc(C)n(CC(=O)N[C@H]2CC[C@H]2N)c(=O)n1 [CBK307647],102.888
17,CCn1cnc(S(=O)(=O)N2CCC(OCc3ccccc3)CC2)c1 [CBK305228],27.0646
18,CC1=CCC2C(=O)N(C(CC(C)C)C(=O)O)C(=O)C2C1 (stereo not shown) [CBK287172],120.332
19,CC(C)(C)S(=O)(=O)CC(N)=S [CBK021304],75.6538
20,Cc1ccc2nc(-c3ccccc3)c(C)c(C(=O)O)c2c1 [CBK270268],101.24
21,Cc1cc2cn([C@@H]3O[C@H](CO)[C@H](O)C3O)c(=O)nc2[nH]1 (stereo partly shown) [CBK201219],83.2907

row,SMILES,% of control remaining
1,CSCCN1CCCN(c2nccc(OCc3ccc(Cl)c(Cl)c3)n2)CC1 [CBK083960],12.5948
2,Cc1ccc(-c2ccc(Nc3ccc(Oc4ccccc4)cc3)nc2)cc1C [CBK037740],128.049
3,O=C(CSc1nnc(Cc2cccs2)n1-c1ccccc1)c1c[nH]c2ccccc12 [CBK268290],132.902
4,CCN(CC)C(=O)N1CCC(c2ccncc2)CC1 [CBK283503],95.7398
5,COc1cc(Nc2cccc(-c3ccco3)n2)cc(OC)c1OC [CBK037724],121.215
6,CN1Cc2ccccc2OC2(CCCN(C(=O)C3CC3)CC2)C1 (stereo not shown) [CBK285131],71.6764
7,COc1ccc(C(=O)Nc2nc3c(C)cccc3s2)c(OC)c1 [CBK287301],85.3109
8,O=S(=O)(N1CCCCC1)N1CCN(CC(O)COc2ccc3cc(Br)ccc3c2)CC1 (stereo not shown) [CBK269032],98.9101
9,CCC(NC(=O)Nc1cc(N2CCOCC2)ccc1Cl)c1nccs1 (stereo not shown) [CBK306519],49.4931
10,COc1cc(F)ccc1-c1nc(N)cc2cccnc12 [CBK081176],85.7422
11,COc1cc(CNCc2cnn(C)c2)c(O)c(C(C)(C)C)c1 [CBK304721],33.7068
12,c1ccc(N2CCN(Cc3cncn3C3CCCCC3)CC2)nc1 [CBK307345],61.6397
13,CC(=O)Nc1ccc(C(=O)NCc2ccc(S(N)(=O)=O)cc2)cc1 [CBK263642],106.276
14,C=CCn1c(SCC(=O)Nc2cccc(F)c2)nnc1-c1ccccc1O [CBK269620],92.4729
15,COC(=O)c1cccc(CN2CCC3(CC2)NC(=O)Cc2ccccc23)c1 [CBK039807],83.7701
16,Cc1cc(N2CCN(Cc3nc(C(C)(C)C)no3)CC2)nc(C(C)C)n1 [CBK305333],21.5222
17,O=C1NCC(c2ccccc2)C1C(=O)N/N=C\c1cc(O)ccc1[N+](=O)[O-] (stereo not shown) [CBK262772],101.296
18,Cc1cc(NC(=O)C2CCN(C(=O)CNc3ccccc3)CC2)no1 [CBK304297C],116.716
19,CN(CC(=O)NNC(=O)c1cccnc1)S(=O)(=O)c1cc(Cl)ccc1Cl [CBK267388],80.9736
